PubChem BioAssay AID504832 (National Center for Advancing Translational Sciences (NCATS), 2011)
Hit rate of the full screen: of about 310,000 compounds, about 18,000 (5.8%) were called active. Inconclusive means that the source gave no clear call. Such entries were picked first, then a sample of the others. Calls come from the whole dose curve; as a rule, active = well fitted inhibition curve with a large enough effect; inconclusive = small, poorly fitted or top-dose-only effect, or another doubt; inactive = no such curve, though single readings can be large or run the other way. No potency is given beside an inconclusive call; the fits are too rough.

experiment: Primary qHTS for delayed death inhibitors of the malarial parasite plastid, 48 hour incubation; details: P. falciparum luciferase growth in erythrocytes; series mostly up to 28.7 µM
Procedure, shortened: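 Luminescence readout; reporter = integrated firefly luciferase in P. falciparum. RBC culture at 2% hematocrit, 0.1% parasitemia final, 37 C/5% CO2; decreased signal taken as growth inhibition.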
Potency is the fitted concentration of half-maximal effect; tags give direction and shape of the fitted curve.

| SMILES | Potency |
| --- | --- |
| CCN(C(=O)c1ccc2c(Cl)c3c(nc2c1)CCC3)c1cccc(C)c1 | inconclusive [inhibitor, single point] |
| O=C(Cn1nnc(-c2cccc(C(F)(F)F)c2)n1)NC1CCCC1 | inconclusive [inhibitor, partial curve, poor fit] |
| COc1ccc(-c2cc(-c3cccs3)nc3sc(C#N)c(N)c23)cc1 | inconclusive [inhibitor, single point] |
| CCOC(=O)C1=C(COC(=O)CSc2ccc(C)cc2C)NC(=O)NC1C (stereo not given) | inactive |
| Cc1ccc2[nH]c(CSc3ccccc3)cc(=O)c2c1 | inconclusive [inhibitor, partial curve] |
| CC1(C(=O)OCC(=O)Nc2nc(-c3ccc(F)c(F)c3)cs2)CC1(Cl)Cl (stereo not given) | inactive |
| CCOc1ccccc1C(=O)N1CCC(n2nnc3cc(C(F)(F)F)ccc32)CC1 | inconclusive [inhibitor, partial curve] |
| CCOC(=O)c1cnn(-c2nc(OCC)cc(OCC)n2)c1C | inconclusive [inhibitor, single point] |
| C=CCn1cccc(C(=O)Nc2ccc(F)cc2)c1=O | inactive |
| Clc1cccc(COn2c(-c3ccc(Cl)cc3Cl)nc3ncccc32)c1 | inconclusive [inhibitor, partial curve] |
| O=C(Cc1ccc(F)cc1)Nc1nnc(SCC(=O)N2CCCCC2)s1 | inconclusive [inhibitor, partial curve, poor fit] |
| Cn1nc(C(F)(F)F)c2cc(C(=O)Nc3ccc(C(F)(F)F)cc3)sc21 | active: 6.57 µM |
| COc1cc(C(=O)NC(c2ccccc2)c2ccccc2)cc(Cl)c1OC | inactive |
| O=C(CCc1ccc(S(=O)(=O)N2CCOCC2)cc1)N1CCc2ccccc2C1 | inconclusive [inhibitor, partial curve, poor fit] |
| Cc1cc(N2CCN(C)CC2)nc2ccc(NC(=S)N3CCN(c4cccc(Cl)c4)CC3)cc12 | inconclusive [inhibitor, single point] |
| CSc1nnc(NC(=O)CCc2ccccc2)s1 | inactive |
| Nc1nc(SCC(=O)N2N=C3/C(=C/c4ccco4)CCCC3C2c2ccco2)n[nH]1 (stereo not given) | inconclusive [inhibitor, single point] |
| Cc1cccc(OCCC(=O)Nc2cc(S(=O)(=O)N3CCCCC3)ccc2N2CCOCC2)c1 | inconclusive [inhibitor, single point] |
| Cc1noc(C)c1COC(=O)c1ccccc1NC(=O)Cc1ccccc1 | inconclusive [inhibitor, single point] |
| CC(=O)[C@@]1(O)CC[C@H]2[C@@H]3CCC4=CC(=O)CC[C@]4(C)[C@H]3CC[C@@]21C | inconclusive [inhibitor, partial curve, poor fit] |
| CCCn1c(=O)c2c(nc3n2CCS3)n(C)c1=O | inconclusive [inhibitor, partial curve, poor fit] |
| CN(C(=O)COC(=O)c1sc2ccccc2c1Cl)C1CCCCC1 | inactive |
| COCCCNC(=O)Cn1cnc2sc(C)c(S(=O)(=O)N3CCN(c4ncccn4)CC3)c2c1=O | inactive |

| SMILES | Potency |
| --- | --- |
| O=C(Cn1cnc2ccccc2c1=O)NCc1ccco1 | inactive |
| Cc1ccc(NC(=O)c2sc(Cl)nc2-c2ccccc2)cc1 | inactive |
| CCOc1ccc(C(=O)n2cc(C(=O)OC)c3ccccc32)cc1 | inactive |
| Cc1cccc(N(CC(=O)N2CCCCCC2)S(C)(=O)=O)c1C | inactive |
| O=C(Nc1ccc(-c2csc(-c3ccccc3)n2)cc1)c1ccccc1Cl | inconclusive [inhibitor, partial curve, poor fit] |
| Cc1cccc2cc(CN(C(=O)c3cnccn3)C3CCCCC3)c(Cl)nc12 | active: 4.15 µM |
| Cn1c(SCC(=O)c2ccc(O)c(O)c2)nnc1-c1cccs1 | inconclusive [inhibitor, single point] |
| COc1ccc(Cn2c(C3CC3)nc3ccc(NC(=O)c4ccco4)cc3c2=O)cc1 | active: 2.94 µM |
| CC(=O)c1cccc(N=Nc2c(-c3ccccc3)[nH]n(-c3ccccc3)c2=O)c1 | inconclusive [inhibitor, single point] |
| Cc1cc(C(=O)OCC(=O)N(C)c2c(N)n(Cc3ccccc3)c(=O)[nH]c2=O)c(C)n1-c1ccccc1 | inconclusive [inhibitor, single point] |
| CC1N(C)c2cc(NC(=O)c3ccco3)ccc2C1(C)C (stereo not given) | inactive |
| COc1ccc(C(=O)c2c[nH]c(C(=O)NCCCn3ccnc3)c2)cc1 | inconclusive [inhibitor, single point] |
| O=C(CN1C(=O)NC2(CCCC2)C1=O)Nc1cc(C(F)(F)F)ccc1N1CCCCC1 | inconclusive [inhibitor, partial curve] |
| S=C(NCCc1ccccn1)Nc1cccc(Cl)c1 | inactive |
| CCOc1ccc(NC(=S)N(Cc2ccc(N(C)C)cc2)Cc2ccco2)cc1 | inconclusive [inhibitor, full curve, poor fit] |
| Cc1noc(C)c1-c1ccc2ncnc(NCc3cccc(-c4ccccc4)c3)c2c1 | inconclusive [inhibitor, partial curve] |
| CCOc1ccccc1C1CC(=O)Nc2cc3c(cc21)OCO3 (stereo not given) | inconclusive [inhibitor, partial curve, poor fit] |
| Oc1cncc(Cc2ccccc2)c1 | inconclusive [inhibitor, partial curve, poor fit] |
| COc1ccc(OC)c(CN2CCSCC2)c1 | inconclusive [inhibitor, single point] |
| COc1cc(Nc2ccc(C(=O)O)cc2[N+](=O)[O-])cc(OC)c1 | inconclusive [inhibitor, partial curve, poor fit] |
| COc1ccc(/C=N/NC(=O)CNC(=O)c2ccncc2)cc1 | inactive |
| O=C(NC1CCCCCC1)C1CCN(S(=O)(=O)c2c(Cl)cccc2Cl)CC1 | inconclusive [inhibitor, single point] |
